# The whole screen tested about 48,000 compounds, of which about 550 (1.1%) were called active. Inconclusive means that the source gave no clear call. Such entries were picked first, then a sample of the others. Cut-off read from the data, not from the text of the source: active = potency below about 15 µM; inconclusive = mostly about 16 µM to 33 µM; inactive = weaker than that. Potencies of inconclusive entries are left out as doubtful fits.
# Biological target: Lysosomal acid glucosylceramidase (Homo sapiens) (UniProt P04062)
# Experiment: Glucocerebrosidase;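 note: the screen sought inhibitors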
# Conditions: purified enzyme, resorufin glucoside fluorescence (screen aimed at inhibitors), 20 min
# Summary of the method: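 Normal human glucocerebrosidase (0.2 nM final) was assayed with resorufin β-D-glucopyranoside (30 uM final) in 50mM citric acid/KH2PO4, 10mM sodium taurocholate, 0.01% tween-20, pH 5.9. Compounds were titrated; fluorescence (Ex 548, Em 600) read after 20 min at RT.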
# Potency is the fitted concentration of half-maximal effect.
# Sequence of UniProt P04062 (P04062 whole entry, looked up): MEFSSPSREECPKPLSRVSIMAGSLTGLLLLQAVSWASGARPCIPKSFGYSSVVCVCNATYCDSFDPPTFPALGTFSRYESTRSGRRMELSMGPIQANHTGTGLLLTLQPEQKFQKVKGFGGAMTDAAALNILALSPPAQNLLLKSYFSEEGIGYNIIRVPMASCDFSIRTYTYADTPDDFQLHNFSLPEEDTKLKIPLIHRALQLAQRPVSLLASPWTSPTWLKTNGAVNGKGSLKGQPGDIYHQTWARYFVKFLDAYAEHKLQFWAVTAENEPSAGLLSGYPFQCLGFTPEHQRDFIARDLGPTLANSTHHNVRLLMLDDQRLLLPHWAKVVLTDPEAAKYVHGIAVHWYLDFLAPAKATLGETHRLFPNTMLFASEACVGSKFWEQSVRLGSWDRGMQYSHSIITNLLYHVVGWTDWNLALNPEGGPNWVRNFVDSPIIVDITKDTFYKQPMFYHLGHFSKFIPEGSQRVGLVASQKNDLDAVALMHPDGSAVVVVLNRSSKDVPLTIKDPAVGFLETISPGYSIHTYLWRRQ
row,Structure (SMILES),Potency
1,O=C(Nc1cccc2cccnc12)c1ccc(Br)o1,inconclusive [increasing]
2,CCC(=O)Oc1c(S(=O)(=O)c2ccc(C)cc2)c(C)nn1C(C)(C)C,inconclusive [decreasing]
3,COC(=O)c1ccc(NC(=O)c2sc3nc(-c4ccccc4)cn3c2C)cc1,inconclusive [decreasing]
4,CCCCCn1c(CNC(=O)c2cccs2)nc2ccccc21,inconclusive [decreasing]
5,CC(Oc1ccc(Cl)cc1Cl)c1nc(-c2ccc(NC(=O)c3cccnc3)cc2)no1 (configuration not stated),inconclusive [decreasing]
6,O=C(c1cc(-c2ccncc2)nc2ccccc12)N1CCN(c2ccccn2)CC1,inactive: > 76.9 µM
7,CCCCOc1ccc(NC2=NC3(CCCCC3)N=C(N)N2)cc1,inconclusive [decreasing]
8,O=C(Nc1sccc1C(=O)NCc1ccco1)c1cccnc1,inconclusive [increasing]
9,COc1ccc(-c2nc(-c3ccc(Br)cc3)no2)c(OC)c1,inactive: > 76.9 µM
10,OC(COc1ccc2ccccc2c1Cl)CN1CCOCC1 (configuration not stated),inconclusive [decreasing]
11,Oc1ccc(Nc2nc(NCC3CCCO3)c3ccccc3n2)cc1 (configuration not stated),inconclusive [decreasing]
12,Cc1cc(N2CCN(C(=O)c3ccco3)CC2)n2nc(C)c(-c3ccccc3)c2n1,inconclusive [increasing]
13,O=C(c1cc(-c2ccncc2)nc2ccc(Br)cc12)N1CCN(c2ccccn2)CC1,inconclusive [decreasing]
14,Nc1nc(CN2CCN(Cc3ccc4c(c3)OCO4)CC2)nc(Nc2ccccc2)n1,active: 14.2 µM
15,COc1cccc(C2C=C(c3ccc(Br)s3)Nc3ncnn32)c1OC (configuration not stated),inactive: > 76.9 µM
16,Cc1cccc(-c2nc(CN3CCCC(C(=O)NC4CCCCC4)C3)c(C)o2)c1 (configuration not stated),inconclusive [decreasing]
17,COc1ccc(C(c2nnnn2C(C)(C)C)N2CCN(c3nc4ccccc4s3)CC2)cc1OC (configuration not stated),inconclusive [decreasing]
18,Cc1ccc(-c2nnc(Nc3ccccc3)o2)cc1,inactive: > 76.9 µM
19,Cc1ccc(-c2cc(C(=O)NC3=NCCS3)c3cc(Br)ccc3n2)o1,inactive: > 76.9 µM
20,O=C(CSc1nc2ccccc2[nH]1)NCCCn1ccnc1,inconclusive [decreasing]
21,O=C1C(=O)N(Cc2ccco2)C(c2cccc(Cl)c2)/C1=C(\O)c1ccc2c(c1)OCCO2 (configuration not stated),inactive: > 76.9 µM
22,CC(NC(=O)c1cccs1)C(c1cccs1)N1CCN(c2ccccc2)CC1 (configuration not stated),inconclusive [decreasing]
23,Cc1nnc(Nc2ccccn2)c2ccccc12,inconclusive [decreasing]
24,CCc1cc2c3c(c(=O)oc2cc1OC)CCCC3,inconclusive [increasing]
25,Cc1ccc(CNc2ccc3c(c2)ncn3C)cc1,inconclusive [decreasing]
26,N#Cc1nc(COc2ccc(F)cc2)oc1NCCN1CCOCC1,inconclusive [decreasing]

row,Structure (SMILES),Potency
1,COC(=O)c1ccc(NC(=O)CSc2n[nH]c(-c3ccncc3)n2)cc1,inconclusive [decreasing]
2,COc1cccc(S(=O)(=O)NCc2ccc(C(=O)NCc3ccco3)cc2)c1,inconclusive [decreasing]
3,CCOC(=O)CSc1nc2cc(OCC)ccc2cc1C#N,inactive: > 76.9 µM
4,O=C(Nc1cnn(C23CC4CC(CC(C4)C2)C3)c1)c1cc(-c2ccccc2)on1,inconclusive [increasing]
5,O=C(CN1C(=O)COc2ccccc21)N(Cc1cccnc1)Cc1cccc(F)c1,inactive: > 76.9 µM
6,CCN(CCCNC(=O)c1[nH]c(C)c(C(C)=O)c1C)c1cccc(C)c1,inconclusive [decreasing]
7,CCOC(=O)c1ccccc1NC1CC(=O)N(c2ccccc2C)C1=O (configuration not stated),inactive: > 76.9 µM
8,COc1ccc(CCNC(=O)CSc2nnc(Cc3csc(N)n3)n2C)cc1OC,inactive: > 76.9 µM
9,O=c1nc2n(c3c1oc1ccccc13)Cc1ccccc1-2,inconclusive [decreasing]
10,CCN(CCNC(=O)Nc1ccc(Cl)cc1)c1ccccc1,inconclusive [decreasing]
11,CN(CCC#N)C(=O)c1ccc(CNS(=O)(=O)c2ccc(F)cc2)cc1,inconclusive [decreasing]
12,COc1ccc(-c2nn(-c3ccccc3)cc2C(=O)N2CCOCC2)cc1,inconclusive [decreasing]
13,CCOC(=O)c1sc(NC(=O)c2ccc(S(=O)(=O)N3CCOCC3)cc2)cc1C,inactive: > 76.9 µM
14,COc1ccc(CNC(=O)Cn2nc(-c3ccc4c(c3)OCCO4)ccc2=O)cc1,inconclusive [decreasing]
15,CSc1nc2c(c(=O)[nH]1)C(c1cccs1)C1=C(CCCC1=O)N2 (configuration not stated),inactive: > 76.9 µM
16,CCN1CCN(CC(=O)n2c3c(c4ccccc42)CC(C)CC3)CC1 (configuration not stated),inconclusive [decreasing]
17,O=S(=O)(NCC(c1cccnc1)N1CCN(c2ccccc2)CC1)c1cc(F)ccc1F (configuration not stated),inconclusive [decreasing]
18,Cc1occc1C(=O)Nc1nnc(C(F)(F)F)s1,inconclusive [decreasing]
19,O=C(Nc1ccc(F)c(Cl)c1)c1ccc2c(=O)n3c(nc2c1)CCCCC3,inactive: > 76.9 µM
20,O=C(Nc1cccnc1)c1ccc2c(c1)OCO2,inconclusive [decreasing]
21,Cc1ccc2cc(CN(CCCN3CCOCC3)C(=O)NC3CCCCC3)c(=O)[nH]c2c1C,inconclusive [decreasing]
22,CCOC(=O)N1CCC(NC(=O)c2cc3cc4cc(OC)ccc4nc3o2)CC1,inconclusive [decreasing]
23,CCCn1nc(NS(=O)(=O)c2ccccc2)c2cc3ccccc3nc21,inactive: > 76.9 µM
24,CC(C)c1cc(C(=O)Nc2sc3c(c2C#N)CCC3)no1,inconclusive [increasing]
25,O=C(CCCOc1ccc(Cl)cc1)Nc1nncs1,inconclusive [decreasing]
26,O=C(COC(=O)CCNS(=O)(=O)c1ccc2c(c1)OCCO2)NC1CCCc2ccccc21 (configuration not stated),inconclusive [decreasing]

row,Structure (SMILES),Potency
1,CCOc1ccc(C(=O)Nc2nnn(CC)n2)cc1,inconclusive [decreasing]
2,CC(=O)Nc1ccc(-c2nc3c(C)cccc3[nH]2)cc1,inconclusive [decreasing]
3,O=C(NCc1ccco1)c1sc(=S)n2c1[nH]c(=O)c1ccccc12,inactive: > 76.9 µM
4,COc1ccc2cc(C(c3nnnn3C3CCCCC3)N3CCCCCC3)c3nnnn3c2c1 (configuration not stated),inactive: > 76.9 µM
5,Cc1cccc(-c2noc(-c3ccc(F)cc3)n2)c1,inconclusive [increasing]
6,CC(C)Nc1nc(-c2ccccc2)nc(-n2ccnc2)n1,inactive
7,COC(=O)CSC1=C(C#N)C(c2ccc(Cl)cc2)C(C(=O)OC)C(=O)N1 (configuration not stated),inconclusive [decreasing]
8,COc1ccccc1-c1nnc(SCCN2CCOCC2)n1-c1ccc(C)cc1,inconclusive [decreasing]
9,Cc1onc(-c2c(F)cccc2Cl)c1C(=O)Nc1nc2c(s1)CCCC2,inconclusive [decreasing]
10,CC(C)c1ccc(S(=O)(=O)N2CCN(C(=O)c3cccc(F)c3)CC2)cc1,active: 15.2 µM
11,Cc1ccc(Nc2nc(N)nc(CN3CCN(Cc4ccc5c(c4)OCO5)CC3)n2)c(C)c1,inconclusive [decreasing]
12,CCOC(=O)Cn1nnnc1CN(Cc1ccccc1)Cc1cc2cc(CC)ccc2[nH]c1=O,inconclusive [decreasing]
13,O=c1c2ccccc2[nH]c(=S)n1C1CCCCC1,active: 13.7 µM
14,O=C(c1cc2ccccc2oc1=O)N1CCN(c2ccccn2)CC1,inactive: > 76.9 µM
15,CN(C)CCSc1nc(N)c2c3c(sc2n1)COC(C)(C)C3,inconclusive [decreasing]
16,O=C(NCCc1nc2ccccc2[nH]1)c1ccc(F)cc1,inconclusive [decreasing]
17,O=C(CCSc1nc(-c2ccco2)cc(C(F)(F)F)n1)N1CCN(c2ccccn2)CC1,inconclusive [decreasing]
18,c1ccc(-n2nnnc2NCCc2c[nH]c3ccccc23)cc1,inconclusive [decreasing]
19,COc1ccc2c(c1)c(C(=O)N1CCN(C)CC1)c(C)n2-c1ccccc1,active: 11.9 µM
20,COc1cc(S(=O)(=O)N2CCN(Cc3ccccc3)CC2)ccc1Br,inconclusive [decreasing]
21,CCOc1ccc(NC(=O)c2nnn(CC(=O)Nc3ccccc3OC)c2N)cc1,inactive: > 76.9 µM
22,Cc1ccc2[nH]c(=O)c(CNC(C)(C)C)cc2c1,inactive: > 76.9 µM
23,O=C(NCc1ccc2c(c1)OCO2)c1cc2c(s1)CS(=O)(=O)C2,inconclusive [decreasing]
24,CCc1nc2ccccc2c(C(=O)OC2CCOC2=O)c1C (configuration not stated),inconclusive [decreasing]
25,COc1ccc(NC(=O)N2CCC(c3nc(-c4cccs4)no3)CC2)cc1,inconclusive [decreasing]
